Data: publication PMC4336329 (PLoS ONE, 2015)
Out of some 310,000 compounds screened, about 2,200 (0.71%) showed an effect of 50% or more. Effects have a minus sign here. The list shows a part of the results.

Target: human ether-à-go-go-related gene (hERG) potassium channel (human, UniProt Q12809)
Test: primary screen, population patch clamp on CHO cells stably expressing hERG

Sequence of human ether-à-go-go-related gene (hERG) potassium channel (Q12809 whole entry, looked up): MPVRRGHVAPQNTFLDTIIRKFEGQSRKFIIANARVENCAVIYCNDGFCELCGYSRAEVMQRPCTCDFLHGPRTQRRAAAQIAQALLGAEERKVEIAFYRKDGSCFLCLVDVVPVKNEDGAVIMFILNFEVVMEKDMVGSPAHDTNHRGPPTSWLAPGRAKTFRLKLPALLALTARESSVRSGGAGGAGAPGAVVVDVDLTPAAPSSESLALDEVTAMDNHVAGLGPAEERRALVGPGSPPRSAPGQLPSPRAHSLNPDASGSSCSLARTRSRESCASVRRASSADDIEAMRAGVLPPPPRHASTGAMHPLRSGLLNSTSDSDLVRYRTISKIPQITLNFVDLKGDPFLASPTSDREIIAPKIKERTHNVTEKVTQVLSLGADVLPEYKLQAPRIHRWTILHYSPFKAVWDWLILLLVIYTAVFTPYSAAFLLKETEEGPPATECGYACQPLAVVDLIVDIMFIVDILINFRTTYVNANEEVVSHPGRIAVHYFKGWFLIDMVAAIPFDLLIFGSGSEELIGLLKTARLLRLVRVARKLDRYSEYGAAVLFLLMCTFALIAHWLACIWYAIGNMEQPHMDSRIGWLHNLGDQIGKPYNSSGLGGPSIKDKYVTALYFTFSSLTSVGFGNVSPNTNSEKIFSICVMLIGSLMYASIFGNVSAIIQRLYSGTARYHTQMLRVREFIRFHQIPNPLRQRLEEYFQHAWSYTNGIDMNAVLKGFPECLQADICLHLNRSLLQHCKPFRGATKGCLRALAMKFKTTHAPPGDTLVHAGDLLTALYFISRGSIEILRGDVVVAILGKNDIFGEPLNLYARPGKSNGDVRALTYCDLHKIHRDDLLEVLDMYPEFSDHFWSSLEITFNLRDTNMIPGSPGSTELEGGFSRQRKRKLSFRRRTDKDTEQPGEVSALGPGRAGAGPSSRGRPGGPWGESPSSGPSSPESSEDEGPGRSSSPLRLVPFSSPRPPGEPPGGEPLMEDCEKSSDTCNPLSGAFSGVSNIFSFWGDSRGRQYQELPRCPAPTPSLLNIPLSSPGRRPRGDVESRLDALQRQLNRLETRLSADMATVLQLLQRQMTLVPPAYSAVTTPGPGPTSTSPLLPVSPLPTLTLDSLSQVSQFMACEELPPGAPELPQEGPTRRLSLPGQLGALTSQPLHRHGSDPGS

SMILES | hERG current change (%, negative = inhibition) at 1uM
CC1=NN(C(=O)Cc2ccc([N+](=O)[O-])cc2)C(O)(C(F)(F)C(F)(F)F)C1 (stereo not drawn) | 5.17%
Nc1ccc(S(=O)(=O)[N-]c2cnc3ccccc3n2)cc1.[Na+] | -1.51%
CCN(CC)c1ccc(/C=N/NC(=O)c2cnccn2)c(O)c1 | 4.24%
Cc1cc(C(c2nnnn2Cc2ccccc2)N2CCOCC2)c(C)n1-c1ccc2c(c1)OCO2 (stereo not drawn) | -4.64%
CC(Sc1ncc(C(F)(F)F)cc1Cl)C(=O)NCC1CCCO1 (stereo not drawn) | -1.47%
Cc1cccc(CSc2nc3nc(C)cc(C)n3n2)c1 | -3.14%
O=C(c1ccc(CS(=O)Cc2ccc(Cl)cc2)o1)N1CCN(c2cccc(Cl)c2)CC1 (stereo not drawn) | 8.12%
Cc1ccc(C)c(OCC(=O)Nc2ccc(S(=O)(=O)N3CCN(C)CC3)cc2)c1 | 5.65%
CCOc1ccc(CCNC(=O)C2CCCN(c3ncnc4c3nc3n4CCCCC3)C2)cc1 (stereo not drawn) | -8.63%
Cn1cnc2c1c(=O)n(Cc1cccc(F)c1)c(=O)n2C | 15.2%
COc1ccc(CC(=O)Nc2cccc(S(=O)(=O)N3CCOCC3)c2)cc1OC | 11.2%
COc1cccc(NC(=S)NCc2cccs2)c1 | 10.3%
O=C(NCCc1nc2ccccc2[nH]1)C1CCC(=O)N(CCc2cccc(F)c2)C1 (stereo not drawn) | 2.46%
COc1ccc(OC)c(S(=O)(=O)NC(C)(C)C)c1 | 22.3%
COc1ccc(-c2nc3nc(C)cc(C)n3n2)cc1 | 0.732%
COc1cc(C)c(Br)cc1S(=O)(=O)NCc1ccncc1 | 14.8%
CCOc1ccc(OCCC(=O)NNC(=O)c2cc(OC)c(OC)c(OC)c2)cc1 | -24.2%
CSc1ccccc1C(=O)Nc1cccc([N+](=O)[O-])c1 | 0.474%
Cc1csc(SCCn2c(N3CCCC3)nc3c2c(=O)[nH]c(=O)n3C)n1 | 6.17%
C[C@H]1CC[C@H]2C(=O)N3[C@H](c4ccccc4Br)[C@@H](C)CC[C@H]3C(=O)N2[C@@H]1c1ccccc1Br | 16.1%
CC(CN1C(C)CCCC1C)OC(=O)c1ccccc1F.Cl (stereo not drawn) | 4.71%
COC(=O)c1ccc(C(=O)OC)c(NC(=S)N2CCN(c3ccc(F)cc3)CC2)c1 | -0.255%

SMILES | hERG current change (%, negative = inhibition) at 1uM
CC1CCCN(C(=O)Cn2nnc(-c3ccc(S(C)(=O)=O)cc3)n2)C1 (stereo not drawn) | 21.2%
C=CCOc1cccc(C2/C(=C(\O)c3ccc4c(c3)OCCO4)C(=O)C(=O)N2Cc2cccnc2)c1 (stereo not drawn) | 13.3%
O=C(CCNC(=O)C1CCN(S(=O)(=O)c2ccccc2)CC1)NCCc1ccc(Cl)cc1 | 12.9%
Cc1cc(C(=O)N/N=C/c2ccc(Br)o2)n[nH]1 | 11.7%
Cc1ccc(NS(=O)(=O)c2cc(C(=O)NCc3cccnc3)ccc2C)cc1 | -4.06%
Cc1ccc(S(=O)(=O)NC(=O)COc2ccccc2)cc1 | 13.3%
COc1ccc(OCC(=O)Nc2ccc(NC(=O)c3cccs3)cc2)cc1 | 9.81%
CC(=O)c1ccc(-n2c(CCC(=O)O)ccc2-c2ccc(Br)cc2)cc1 | 7.99%
Cc1cc(N(C)NC(=S)Nc2ccccc2)nc(C)n1 | 15.4%
CCCCN(C)C(=O)c1cn(C)c2ccc(S(=O)(=O)N(C)C)cc2c1=O | 13.3%
C/C(=N\NC(=O)C1CCCC1)c1ccc(C(C)C)cc1 | -24.6%
CCOC(=O)C1CCN(C(=O)C2CCN(S(=O)(=O)c3ccc4ccccc4c3)CC2)CC1 | 0.237%
Cc1cc(C)c[n+](-c2[nH]c(=O)sc2/C=N/N=C(\[O-])c2cccnc2)c1 | 3.11%
Cc1c(NC(=O)c2ccc(NS(=O)(=O)c3ccccc3)cc2)c(=O)n(-c2ccccc2)n1C | -13.3%
CC(NCCc1ccc(O)cc1)C(O)c1ccc(O)cc1.Cl (stereo not drawn) | 14.2%
CC(=O)Nc1ccc(C(=O)OCc2ccccc2Br)cc1 | 14.1%
O=C(Nc1cccc(OCC(=O)N2CCOCC2)c1)c1cccc(Cl)c1 | 16.1%
Cc1nnc2n(-c3ccccc3)c(=O)c3c4c(sc3n12)CC(C)CC4 (stereo not drawn) | 3.72%
CCNC(=S)N1CCN(CCN=CC2=C(O)CC(c3ccco3)CC2=O)CC1 (stereo not drawn) | 9.17%
CCC(C)N(C(=O)CSc1nnc(NC(C)C)s1)C1CCS(=O)(=O)C1 (stereo not drawn) | 11.1%
Cc1ccc(NC(=O)c2ccc([N+](=O)[O-])cc2Cl)nc1 | 0.895%
CN1C(C(=O)NCC2CC2)CC2Cn3c(nc4ccccc43)C21 (stereo not drawn) | 9.46%

SMILES | hERG current change (%, negative = inhibition) at 1uM
COc1ccc(/C=C/c2cc(C(F)(F)F)on2)cc1 | 17.5%
Cc1ccc2c(c1)nnn2C1CCN(C(=O)Nc2ccccc2C)CC1 | 3.09%
CCOC(=O)N1CCC(N2C(=O)c3ccc(C(=O)Nc4ccc(OC)c(OC)c4)cc3C2=O)CC1 | 11.3%
O=C(CCC1CCCC1)N1CCN(S(=O)(=O)Cc2ccccc2)CC1 | 8.09%
CCCCOc1cccc(C(=O)NC(=S)Nc2ccc(Cl)c(C(=O)O)c2)c1 | 9.79%
S=C(NCc1ccncc1)NC1CCCC1 | 15.9%
COc1ccc(NS(=O)(=O)c2ccc(Cl)c(NC(=O)c3cccnc3Cl)c2)cc1 | 8.68%
O=C(NCc1ccco1)c1ccc(Cn2c(=O)c3ccccc3n(Cc3ccc(Cl)cc3)c2=O)cc1 | 21.2%
O=C(CCCOc1ccccc1)Nc1cccc([N+](=O)[O-])c1 | 10.7%
COC(=O)CCN1CCC(C(N)=O)CC1 | 8.56%
CC(=O)NCCC(=O)Nc1cc(S(=O)(=O)N2CCCCC2)ccc1Oc1cccc(C)c1 | -9.98%
CCCCC1=CC2=CC(=O)C(C)(OC(=O)C3CCCC3)C(=O)C2=CO1 (stereo not drawn) | 16.3%
CCOc1ccccc1CN1CCNC(=O)C1CC(=O)N(C)Cc1nonc1C (stereo not drawn) | 12.2%
Cl.O=C(O)CCCCCNc1ncnc2ccc(Br)cc12 | 10.4%
COc1ccc(CN(C2CCCCC2C)S(=O)(=O)c2ccc(S(=O)(=O)N(C)C)cc2)cc1OC (stereo not drawn) | 7.35%
CCOc1cc(S(=O)(=O)n2nc(C)cc2C)ccc1F | 8.12%
CC(C)N1CCN(Cc2ccc(C#CCCO)cc2)CC1CCO (stereo not drawn) | 10.2%
CN(Cc1ccccc1)c1oc(-c2ccco2)nc1C#N | 5.77%
O=C(CNCCO)N1N=C(c2cccs2)CC1c1cccs1 (stereo not drawn) | -3.17%
CC1(C)NC(=O)N(CC(=O)OCC(=O)NC(=O)c2ccccc2)C1=O | 4.44%
O=C(CCSc1ccccc1)Nc1nccs1 | 7.06%
O=C(NCc1ccc2[nH]c3c(c2c1)CCCC3)c1ccc(S(=O)(=O)N2CCOCC2)cc1 | 12.2%

SMILES | hERG current change (%, negative = inhibition) at 1uM
O=C(Nc1ccc2[nH]ncc2c1)c1ccccc1Br | 11.5%
S=c1[nH]nc(-c2ccccn2)n1/N=C/c1ccc(Br)s1 | 15.7%
COCCCC1CCN(C(=O)C2CCC(=O)N(Cc3ccccc3F)C2)CC1 (stereo not drawn) | -7.2%
COC(=O)C1=CC(C(=O)c2cccs2)=NN(c2ccc(OC)cc2)C1C(=O)OC (stereo not drawn) | 2.54%
O=C(Nc1ccc(Cl)cc1)c1cccc(S(=O)(=O)Nc2ccccn2)c1 | -4.61%
Cc1sc(NC(=O)CN(CCc2ccccc2)C(=O)C2CC2)c(C(N)=O)c1C | 3.41%
O=C(c1ccccc1Br)N(Cc1ccccc1)c1ccccc1 | 18.2%
CC(C)c1ccc(C(=O)Nc2nnc(S(=O)(=O)N3CCCCC3)s2)cc1 | 11.8%
CC1(C)Cc2cccc(OCC(=O)NCc3ccccc3F)c2O1 | -2.66%
Cc1cccc2sc(N3CCN(C(=O)c4cccs4)CC3)nc12 | 14%
CCn1cc(C(=O)O)c(=O)c2cc(F)c(N3CCN(C(=S)NC(=O)c4ccccc4)CC3)cc21 | 16.9%
COc1cc(NC(=O)c2c(OC)cccc2OC)ccc1NC(=O)c1cc2ccccc2o1 | 11.2%
O=C1C2C3C=CC(C3)C2C(=O)N1c1ccc2ccccc2c1 (stereo not drawn) | 10.1%
Cc1ccc(C(=O)CCC(=O)N(C)CC(=O)Nc2c(Cl)cccc2Cl)cc1 | 13.4%
COc1ccccc1OCCCCCc1c(C)n[nH]c1C | 2.03%
COc1ccc(S(=O)(=O)NCc2ccc(F)cc2)cc1OC | 14.1%
Cc1cc2oc(C(=O)Nc3c(C)n(C)n(-c4ccccc4)c3=O)c(C)c2cc1C | 2.13%
CC1CCCN(C(=O)c2cccc(S(=O)(=O)N3CCCC3)c2)C1 (stereo not drawn) | 0.22%
Cc1cccc(NC(=O)Cc2nnc(NC(=O)Nc3ccccc3F)s2)c1 | 2.69%
CCC(C)NC(=O)COc1ccc(S(=O)(=O)N2CCOCC2)cc1 (stereo not drawn) | 7.49%
COc1ccccc1CN1CC(C(=O)NCc2cnn(C)c2)CCC1=O (stereo not drawn) | 9.14%
